From EP1469074B1, “Human calcium channel compositions and methods” (priority 1991, dated 1993)

System: human neuronal calcium channel α1D, α2 and β1 subunits, expressed in Xenopus laevis oöcytes
Experiment: Two-electrode voltage clamp of barium currents in Xenopus laevis oöcytes coinjected with α1D, α2 and β1 transcripts
Format: cell-based

Row | SMILES | effect on barium currents (Bay K 8644, concentration not stated, also prolonged tail currents and hyperpolarizing shift in current activation) | fraction of the inward barium current blocked (nifedipine, concentration not given, n=7, 40 mM BaCl2 bath)
1 | COC(=O)C1=C(C)NC(C)=C([N+](=O)[O-])C1c1ccccc1C(F)(F)F (centres unmarked) [Bay K 8644] | increased the magnitude of the currents | –
2 | COC(=O)C1=C(C)NC(C)=C(C(=O)OC)C1c1ccccc1[N+](=O)[O-] [nifedipine] | – | 91 ± 6%
